Results published in publication PMC4336329 (PLoS ONE, 2015).
Among all 310,000 compounds or so, about 2,200 (0.71%) showed an effect of 50% or more. Effects have a minus sign here. This is one part of the list.

target: human ether-à-go-go-related gene (hERG) potassium channel (human, UniProt Q12809); test: primary screen, population patch clamp on CHO cells stably expressing hERG
Sequence (Q12809 whole entry, looked up): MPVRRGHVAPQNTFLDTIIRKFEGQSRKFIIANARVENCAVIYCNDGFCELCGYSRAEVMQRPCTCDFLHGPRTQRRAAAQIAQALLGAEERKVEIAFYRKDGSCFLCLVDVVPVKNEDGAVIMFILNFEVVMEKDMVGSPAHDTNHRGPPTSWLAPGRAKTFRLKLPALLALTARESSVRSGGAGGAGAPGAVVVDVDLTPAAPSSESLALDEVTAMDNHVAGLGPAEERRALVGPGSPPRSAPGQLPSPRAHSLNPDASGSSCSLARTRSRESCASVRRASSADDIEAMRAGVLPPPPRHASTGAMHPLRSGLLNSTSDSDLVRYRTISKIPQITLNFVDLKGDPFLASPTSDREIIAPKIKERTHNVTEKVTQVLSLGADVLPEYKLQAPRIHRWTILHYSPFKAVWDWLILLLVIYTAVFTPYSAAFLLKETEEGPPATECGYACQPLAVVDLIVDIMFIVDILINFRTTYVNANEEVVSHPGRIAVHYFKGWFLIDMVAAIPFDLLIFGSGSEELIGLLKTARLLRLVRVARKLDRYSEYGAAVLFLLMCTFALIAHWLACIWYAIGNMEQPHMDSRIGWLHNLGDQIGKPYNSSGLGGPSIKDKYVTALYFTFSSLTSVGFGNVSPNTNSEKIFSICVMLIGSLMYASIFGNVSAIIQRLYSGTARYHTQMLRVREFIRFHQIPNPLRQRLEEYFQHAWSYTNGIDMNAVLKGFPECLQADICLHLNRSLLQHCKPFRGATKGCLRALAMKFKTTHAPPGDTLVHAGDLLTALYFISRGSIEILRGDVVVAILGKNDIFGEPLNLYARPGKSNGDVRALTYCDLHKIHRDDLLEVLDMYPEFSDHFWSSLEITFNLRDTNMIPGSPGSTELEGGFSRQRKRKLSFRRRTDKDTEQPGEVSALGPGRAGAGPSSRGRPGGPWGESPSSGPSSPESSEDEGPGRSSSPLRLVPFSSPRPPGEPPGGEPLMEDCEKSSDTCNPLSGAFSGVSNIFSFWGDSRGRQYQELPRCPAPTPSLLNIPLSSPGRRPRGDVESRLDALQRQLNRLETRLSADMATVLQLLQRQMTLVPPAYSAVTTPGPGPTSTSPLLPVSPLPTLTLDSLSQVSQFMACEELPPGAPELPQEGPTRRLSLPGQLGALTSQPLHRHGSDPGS

Row | Compound | hERG current change (%, negative = inhibition) at 1uM [%]
1 | Cc1nc(CN2CCC(c3ccccc3)CC2)cc(=O)[nH]1 | 17.1
2 | CCOC(=O)N1CCC(N(CCN(C)C)C(=S)Nc2ccccc2C)CC1 | 11.2
3 | CCOc1ccc(-n2c(SCC(N)=O)nnc2-c2ccco2)cc1 | 9.37
4 | CC(C)c1nnc(NC(=O)c2cccnc2)s1 | 13.7
5 | O=C(CN1CCCC1)N1c2ccccc2Sc2ccccc21 | 1.44
6 | COc1ccc(C(=O)NC(C)c2ccncc2)cc1S(=O)(=O)N(C)Cc1ccccc1 (centres unmarked) | -3.57
7 | CC(C(=O)N1c2ccccc2CCc2ccccc21)n1nnc(-c2ccc(N(C)C)cc2)n1 (centres unmarked) | 12.9
8 | COc1ccc(CCC(=O)Nc2nc(C)c(C(=O)N(C)C)s2)cc1 | -3.88
9 | COc1cc(/C=N/N2CCN(C3c4ccccc4-c4ccccc43)CC2)ccc1O | 9.05
10 | O=[N+]([O-])c1ccc(C[n+]2cc(-c3ccccc3)n3c2CCCCC3)cc1.[Br-] | -8.73
11 | COC(=O)C1=C(c2ccc(S(C)(=O)=O)cc2)C[C@@H]2CC[C@H]1N2C | 13
12 | CC1(C)CC(C)(O)P(=O)(c2ccccc2)O1 (centres unmarked) | 2.8
13 | O=C(CCc1ccccc1)Nc1ccc(S(=O)(=O)Nc2nccs2)cc1 | 2.47
14 | O=C(NC1CCCCC1)C1CCN(c2ncccn2)CC1 | 8.52
15 | NC[C@H](Cc1ccccc1)NCCCCC1CCCCC1 | 17.5
16 | CC1CCCCN1C(=O)CSc1nnc2c(n1)[nH]c1ccc(F)cc12 (centres unmarked) | 18.1
17 | CN(C)S(=O)(=O)c1ccc(Cl)c(NC(=O)CN2CCCCCC2)c1 | -3.33
18 | O=S(=O)(NC1CCCC1)c1cc(F)ccc1F | -0.891
19 | O=C1CCCN1c1ccc(Br)cc1 | 12.2
20 | CC(=O)Nc1c2c(nn1-c1ccc(F)cc1)CSC2 | 11.4
21 | N#Cc1c2n(c3c(=O)n(Cc4ccc(Cl)cc4)cnc13)CCCCC2 | -1.35
22 | Br.CC1=CS(=O)(=O)CC1Sc1nc2ccccc2[nH]1 (centres unmarked) | 0.45
23 | O=C(CC1SC(N2CCCCC2)=NC1=O)Nc1ccc(C(=O)O)cc1 (centres unmarked) | 14.5
24 | Cc1ccc(NC2=NCCC2)cc1Cl | 5.39
25 | CCN1CCc2c(sc(NC(=O)c3cc4ccccc4cc3OC)c2C(N)=O)C1.Cl | 10.2
26 | C/C(=C/C=C/[C@@H](C)C(=O)O)[C@H]1CN[C@H](C(=O)O)[C@H]1CC(=O)O | 2.33
